Source: patent US20220112284A1 (Innovent, published 2022)

Legend:
[1] = target: T1, human PD-L1 on CHOS cells overexpressing PD-L1 (CHOS-PD-L1) (human, UniProt Q9NZQ7); assay: FACS on CHOS-PD-L1 cells, PE anti-human Fc detection
T1 construct: whole, on cells; also called CHO-PD-L1; PD-L1 on the cell surface
Procedure: (§1) 2) Detection: The cell suspension was centrifuged at 400 g on a centrifuge for 5 min to remove the cell culture medium. The serial dilutions of the bispecific antibody IGN-LP disclosed herein and anti-humanized Nb-Fc and anti-LAG-3 antibody ADI31853 as controls were added to the U-shaped plate at 100 μL each, and then the cells were resuspended and put onto the ice to stand for 30 min. The cell suspension was centrifuged at 400 g for 5 min to remove the supernatant, and the cells were washed with PBS to remove the unbound antibodies. The resulting cell suspension was centrifuged at 400 g for 5 min to remove PBS. 100 μL of the solution of PE-conjugated anti-human Fc antibody (Jackson Immuno Research) diluted at a ratio of 1:200 was added to each well, and the cells were incubated in the dark on the ice for 30 min. Then the cell suspension was centrifuged at 400 g for 5 min to remove the supernatant. The cells were washed with PBS once to remove the unbound PE-conjugated anti-human Fc antibody. Then the cells were resuspended with 100 μL of PBS, and the binding of the antibody to cells was assayed by FACS.

[2] = target: T2, human LAG-3 on 293 cells overexpressing human LAG-3 (293-LAG-3) (human, UniProt P18627 23-525); assay: FACS on 293-LAG-3 cells, PE anti-human Fc detection
T2 construct: whole, on cells; also called LAG-3 on the cell surface
T2 sequence (looked up): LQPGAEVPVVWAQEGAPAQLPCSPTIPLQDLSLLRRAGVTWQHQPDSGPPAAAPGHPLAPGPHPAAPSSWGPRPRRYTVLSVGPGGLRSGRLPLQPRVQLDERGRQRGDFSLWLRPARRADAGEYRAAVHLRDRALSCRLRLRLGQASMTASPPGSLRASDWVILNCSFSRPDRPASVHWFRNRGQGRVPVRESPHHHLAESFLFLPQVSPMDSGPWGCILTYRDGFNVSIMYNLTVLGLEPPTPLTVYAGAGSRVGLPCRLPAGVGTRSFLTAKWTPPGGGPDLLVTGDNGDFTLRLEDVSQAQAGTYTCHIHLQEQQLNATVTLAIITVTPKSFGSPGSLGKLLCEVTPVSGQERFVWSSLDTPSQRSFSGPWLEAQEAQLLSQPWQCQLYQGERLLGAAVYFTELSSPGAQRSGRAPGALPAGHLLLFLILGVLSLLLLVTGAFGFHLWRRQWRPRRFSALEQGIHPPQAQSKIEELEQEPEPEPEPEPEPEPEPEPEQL
Procedure: as §1

human LAG-3-his [3] = target: T3, human LAG-3-his (human, UniProt P18627 23-450); assay: ForteBio Octet BLI; antibody on AHQ tip, human LAG-3-His 100 nM in solution, monovalent
T3 construct: Bought reagent; also called LAG-3 protein; not shown: His tag
T3 sequence (looked up): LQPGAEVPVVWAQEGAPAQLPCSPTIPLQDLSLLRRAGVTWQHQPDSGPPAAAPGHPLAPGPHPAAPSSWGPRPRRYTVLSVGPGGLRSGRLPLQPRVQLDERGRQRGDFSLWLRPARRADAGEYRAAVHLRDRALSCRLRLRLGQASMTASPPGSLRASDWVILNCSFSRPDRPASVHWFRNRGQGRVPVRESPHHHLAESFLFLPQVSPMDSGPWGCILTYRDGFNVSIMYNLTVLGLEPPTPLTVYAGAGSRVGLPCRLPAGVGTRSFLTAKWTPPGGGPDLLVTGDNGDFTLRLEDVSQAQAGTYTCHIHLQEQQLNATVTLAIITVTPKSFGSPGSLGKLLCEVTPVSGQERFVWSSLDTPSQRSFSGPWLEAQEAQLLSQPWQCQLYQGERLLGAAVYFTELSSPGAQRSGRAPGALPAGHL
Procedure: (§2) The equilibrium dissociation constant (KD) for the binding of the prepared exemplary anti-LAG-3/PD-L1 bispecific antibody IGN-LP disclosed herein to LAG-3 and PD-L1 was determined by a kinetic binding assay using the Octet system manufactured by ForteBio. A ForteBio affinity assay was performed according to the method reported in the literature (Estep, P, et al., High throughput solution Based measurement of antibody-antigen affinity and epitope binning MAbs, 2013, 5(2): p. 270-278). Briefly:
(§3) The anti-human IgG Fc biosensor AHQ was immersed in each well containing the antibody solution at room temperature for 600 s to load the samples. The sensor was then washed in SD buffer until it returned to the baseline, and then immersed in a well containing 100 μL of the antigen solution to monitor the binding of the antibody to the antigen. The sensor was then transferred to a well containing 100 uL of the SD buffer to monitor the antibody dissociation (the operation procedures were set as: Baseline, Loading ˜1 nm, Baseline, Association and Dissociation, each running for a time depending on the binding and dissociation rates of the samples). The rotation speed was 400 rpm and the temperature was 30° C. […]

human LAG-3-his [4] = target: T3, human LAG-3-his; assay: ForteBio Octet BLI; antibody on AHQ tip, human LAG-3-His 100 nM in solution
Procedure: as §2, §3

human PD-L1-his [5] = target: T4, human PD-L1-his (human, UniProt Q9NZQ7 part only); assay: ForteBio Octet BLI; antibody on AHQ tip, human PD-L1-His 100 nM in solution, monovalent
T4 construct: Bought reagent; also called PD-L1 protein; not shown: His tag
Procedure: as §2, §3

human PD-L1-his [6] = target: T4, human PD-L1-his; assay: ForteBio Octet BLI; antibody on AHQ tip, human PD-L1-His 100 nM in solution
T4 sequence (Q9NZQ7 19-238 limits assumed): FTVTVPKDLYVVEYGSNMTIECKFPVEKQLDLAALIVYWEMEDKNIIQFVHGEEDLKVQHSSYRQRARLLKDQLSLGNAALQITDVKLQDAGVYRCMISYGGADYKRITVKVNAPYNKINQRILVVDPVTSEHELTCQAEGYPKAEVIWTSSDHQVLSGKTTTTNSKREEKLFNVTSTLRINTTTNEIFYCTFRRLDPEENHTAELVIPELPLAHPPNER
Procedure: as §2, §3

B1: anti-LAG-3/PD-L1 bispecific antibody IGN-LP (bispecific antibody)
heavy: QLQLQESGPGLVKPSETLSLTCTVSGGSIYSESYYWGWIRQPPGKGLEWIGSIVYSGYTYYNPSLKSRVTISVDTSKNQFSLKLSSVTAADTAVYYCARVRTWDAAFDIWGQGTMVTVSSASTKGPSVFPLAPSSKSTSGGTAALGCLVKDYFPEPVTVSWNSGALTSGVHTFPAVLQSSGLYSLSSVVTVPSSSLGTQTYICNVNHKPSNTKVDKKV[sequence of human IgG1 Fc with changes not given]GGGGSGGGGSQVQLQESGGGLVQPGGSLRLSCAASAYTISRNSMGWFRQAPGKGLEGVAAIESDGSTSYSDSVKGRFTISLDNSKNTLYLEMNSLRAEDTAVYYCAAPKVGLGPRTALGHLAFMTLPALNYWGQGTLVTVSS
light: DIQMTQSPSSLSASVGDRVTITCQASQDISNYLNWYQQKPGKAPKLLIYDASNLETGVPSRFSGSGSGTDFTFTISSLQPEDIATYYCQQVLELPPWTFGGGTKVEIKRTVAAPSVFIFPPSDEQLKSGTASVVCLLNNFYPREAKVQWKVDNALQSGNSQESVTEQDSKDSTYSLSSTLTLSKADYEKHKVYACEVTHQGLSSPVTKSFNRGEC
notes: also called anti-PD-L1/LAG-3 bispecific antibody
EC50 [1]: 1.03 nM
EC50 [2]: 0.434 nM
Kd (human LAG-3-his [3]): 1.71 nM
kon (human LAG-3-his [4]): 117000 M⁻¹ s⁻¹
Kd (human PD-L1-his [5]): 16.8 nM
koff (human PD-L1-his [6]): 0.00584 s⁻¹
kon (human PD-L1-his [6]): 347000 M⁻¹ s⁻¹
